Among all 310,000 compounds or so, about 14,000 (4.5%) showed an effect of 50% or more. The effect is printed as a negative number. This is one part of the list.
The compounds below were run against human ether-à-go-go-related gene (hERG) potassium channel (human, UniProt Q12809) (assay: primary screen, population patch clamp on CHO cells stably expressing hERG).
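Also: peak tail current of the secondary pulse compared with the same well before compound.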

Sequence of human ether-à-go-go-related gene (hERG) potassium channel (Q12809 whole entry, looked up): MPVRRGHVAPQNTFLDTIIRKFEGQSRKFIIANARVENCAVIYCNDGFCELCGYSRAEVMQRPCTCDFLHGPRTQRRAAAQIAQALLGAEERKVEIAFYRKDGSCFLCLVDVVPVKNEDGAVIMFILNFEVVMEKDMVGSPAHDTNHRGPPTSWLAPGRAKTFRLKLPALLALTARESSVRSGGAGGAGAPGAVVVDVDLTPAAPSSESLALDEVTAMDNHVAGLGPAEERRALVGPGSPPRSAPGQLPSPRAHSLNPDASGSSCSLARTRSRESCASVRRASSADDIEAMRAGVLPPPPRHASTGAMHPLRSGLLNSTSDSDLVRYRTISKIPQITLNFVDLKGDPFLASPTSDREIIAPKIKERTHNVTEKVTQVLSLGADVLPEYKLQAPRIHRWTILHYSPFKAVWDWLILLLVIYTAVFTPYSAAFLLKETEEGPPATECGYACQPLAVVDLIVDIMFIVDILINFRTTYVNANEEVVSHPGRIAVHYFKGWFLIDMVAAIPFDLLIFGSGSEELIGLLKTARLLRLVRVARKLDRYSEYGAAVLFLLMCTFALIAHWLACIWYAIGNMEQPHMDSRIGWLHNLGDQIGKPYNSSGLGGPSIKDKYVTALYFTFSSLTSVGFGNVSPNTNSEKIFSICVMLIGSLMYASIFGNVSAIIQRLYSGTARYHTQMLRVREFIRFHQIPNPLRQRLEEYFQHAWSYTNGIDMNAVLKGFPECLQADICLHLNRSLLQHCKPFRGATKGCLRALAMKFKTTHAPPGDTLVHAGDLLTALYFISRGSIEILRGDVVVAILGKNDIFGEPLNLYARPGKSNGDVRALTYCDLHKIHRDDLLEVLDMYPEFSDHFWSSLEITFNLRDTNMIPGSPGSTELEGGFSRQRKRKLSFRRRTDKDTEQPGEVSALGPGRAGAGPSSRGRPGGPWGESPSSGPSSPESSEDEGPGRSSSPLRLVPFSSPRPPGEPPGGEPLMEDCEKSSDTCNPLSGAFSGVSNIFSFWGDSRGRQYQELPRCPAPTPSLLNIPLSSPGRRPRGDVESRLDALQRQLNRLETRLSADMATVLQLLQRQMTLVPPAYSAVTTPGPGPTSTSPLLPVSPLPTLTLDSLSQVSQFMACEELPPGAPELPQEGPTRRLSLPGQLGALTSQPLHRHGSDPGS

| Structure (SMILES) | hERG current change (%, negative = inhibition) at 10uM [%] |
| --- | --- |
| O=Cc1ccc(OC(=O)c2cccnc2)cc1 | 9.31 |
| CCOc1ccc(S(=O)(=O)N/N=C(\C)c2ccc(Cl)c(Cl)c2Cl)cc1 | 21.2 |
| Cc1ccc(-c2nc(S(=O)(=O)c3ccccc3)c(SCC(=O)NCC3CCCO3)o2)cc1 (stereo not drawn) | 16.9 |
| COc1ccc(/C=N/NC(=O)c2cc(-c3ccccc3)nc3ccccc23)c(OC)c1 | 10.1 |
| Cc1cc(C)nc(NC2=NCC(=O)N2c2ccccc2)n1 | 8.37 |
| Cc1nc2sc(C(c3ccccc3)N3CC(C)OC(C)C3)c(O)n2n1 (stereo not drawn) | 4.05 |
| COc1ccc(C(=O)Oc2ccc(/C=N/Nc3ccc(Cl)c(C(=O)O)c3)cc2OC)cc1 | 6.85 |
| Cc1ccccc1NC(=O)c1nn(C)c(C(=O)Nc2ccccc2C)c1[N+](=O)[O-] | 0.0696 |
| COc1ccc(C2=NOC(C(=O)Nc3ccc4c(c3)OCCO4)C2)cc1OC (stereo not drawn) | 8.21 |
| N#C/C(=C\c1cc2ccccc2nc1N1CCCCC1)C(N)=O | -8.65 |
| O=C(CCCN1C(=O)/C(=C/c2ccccc2Cl)SC1=S)NNC(=O)c1ccccc1Cl | 29.8 |
| Cc1ccc(CN2CC(C(=O)NNC(=O)Cn3ccc(C(F)(F)F)n3)CC2=O)cc1 (stereo not drawn) | -1.57 |
| Cc1noc(C)c1CSc1nnc(-c2ccccc2)n1Cc1ccco1 | -21.9 |
| COc1ccc(/C=C/C(=O)OCC(=O)NCCC2=CCCCC2)cc1S(=O)(=O)N1CCOCC1 | -10.7 |
| CCc1onc(C)c1C(=O)Nc1ccc2c(c1)OCO2 | 20.1 |
| O=C(c1cn(-c2ccccc2)nc1-c1cccs1)N1CCN(c2ccccc2)CC1 | 6.1 |
| O=[N+]([O-])c1cccnc1Sc1ccc(Br)cc1 | 1.62 |
| Cc1ccc(S(=O)(=O)N2CCC(C(=O)NCCc3ccccn3)CC2)cc1 | -1.52 |
| CN(CC(=O)Nc1cccc(F)c1)C(=O)c1ccc(COc2ccccc2)o1 | 17.9 |

| Structure (SMILES) | hERG current change (%, negative = inhibition) at 10uM [%] |
| --- | --- |
| O=C(Nc1cccc2ccccc12)N1N=CCC1c1ccccc1 (stereo not drawn) | 15.9 |
| COc1ccc2c(c1)C1CC(C)(NC(=O)C1C(=O)c1ccccc1)O2 (stereo not drawn) | -30.3 |
| S=c1[nH]nc(C2CC2c2ccc(Cl)cc2)n1-c1ccc(Cl)cc1 (stereo not drawn) | 28.8 |
| Nn1c(SC/C=C/c2ccccc2)nnc1-c1cccnc1 | 23.4 |
| C#CC(C)(C)NC(=O)c1ccccc1OC | 1.69 |
| c1cc2c(cc1C1=NNC(=NC3CC3)SC1)OCCO2 | 16.8 |
| CCCNC(=O)N1CCC(c2nc3ccccc3s2)CC1 | -16.8 |
| CC(=O)Nc1ccc(NC(=O)C(C)Sc2nnc(C3CC3)n2-c2ccccc2)cc1 (stereo not drawn) | 8.37 |
| O=C(NN=C1CCCCCCCCCCC1)c1ccccc1F | 6.38 |
| O=C(NCc1ccccc1)c1ccc2nccnc2c1 | 1.37 |
| COC(=O)c1ccccc1NS(=O)(=O)c1ccc(F)cc1 | -17.4 |
| COCc1cc(C)nc(SCC(=O)Oc2ccc(Cl)cc2)c1C#N | 4.5 |
| CN(C(=O)CSc1ncnc2ccccc12)C1CCS(=O)(=O)C1 (stereo not drawn) | -3.37 |
| COc1ccc(CC(=O)N/N=C(/C)CC(=O)N(C)c2ccccc2)cc1 | 9.63 |
| CCOC(=O)C1CCCN(c2cc(=O)n(C3CCCCC3)c(=O)[nH]2)C1 (stereo not drawn) | -1.79 |
| COCCn1c(SCC(=O)N(C)C2CCS(=O)(=O)C2)nc2ccccc2c1=O (stereo not drawn) | -12.1 |
| O=C(CP(=O)(c1ccccc1)c1ccccc1)N/N=C/c1cc(Br)cc(Br)c1O | 11.9 |
| CC(=O)Nc1ccc(/C=N/NC(=O)c2cc3ccccc3nc2C)cc1 | 7.23 |
| O=C(CN1C(=O)C2CC=CCC2C1=O)Nc1ccccc1N1CCCC1 (stereo not drawn) | 6.41 |

| Structure (SMILES) | hERG current change (%, negative = inhibition) at 10uM [%] |
| --- | --- |
| COc1ccc(C(=O)O)cc1S(=O)(=O)Nc1cccc(C)c1 | -18.9 |
| CCc1cc(C(=O)NNC(=O)CCl)sc1C | 1.58 |
| COCCNC(=O)C(c1ccc(F)cc1)N(C(=O)CCC(=O)Nc1ccccn1)c1ccc(C)cc1 (stereo not drawn) | 4.24 |
| COCCn1c(=S)[nH]c2sc3c(c2c1=O)CCCC3 | 27.6 |
| COc1cccc(NC(=O)COC(=O)c2ccc(S(=O)(=O)NCc3ccco3)cc2)c1 | -8.16 |
| CCCCc1nc2cc(C(=O)N3CCCCC3COC)ccc2o1 (stereo not drawn) | -12.8 |
| CC(C)c1ccc(N=C2NN=C(c3cccs3)CS2)cc1 | 5.69 |
| COc1ccc(-c2cc(C(F)(F)F)nc(SCCC(=O)NCc3ccco3)n2)cc1 | 12.2 |
| CC1CC(C)CN(C(=O)C2CCN(C(=O)Nc3ccccc3)CC2)C1 (stereo not drawn) | 8.68 |
| N#CC1=C(N)OC2=C(C(=O)CCC2)C12CCC1(CC2)OCCO1 | 10.1 |
| CCCc1cc(C(=O)NCc2ccco2)no1 | 9.57 |
| CCOC(=O)c1ccc(CNCc2ccc(C)cc2)cc1 | -40.2 |
| CC(C)(C)NC(=O)NC(=O)CSc1ncccn1 | 22.7 |
| O=c1ccc2cc(S(=O)(=O)N3CCN(c4ccccc4F)CC3)ccc2o1 | -0.156 |
| Cn1c(SCC(=O)N2CCCCC2)nc2c(c1=O)SCC2 | 12.5 |
| COc1ccc(OCCSc2n[nH]c(N)n2)cc1 | -5.26 |
| CCc1ccc(OCc2nnc(SCC(=O)N3CCN(c4ccccc4)CC3)o2)cc1 | 4.13 |
| O=S(=O)(NCCSCc1ccc(Cl)c(Cl)c1)c1ccc2c(c1)OCCO2 | 2.77 |
| Cc1ccc(C)c(NC(=O)CS(=O)(=O)c2c[nH]c3ccccc23)c1 | -2.33 |

Reference: PMC4336329 (PLoS ONE, 2015)
